{
  "source": "PubChem BioAssay AID488969",
  "about": "(Vanderbilt High Throughput Screening Facility, 2010)",
  "note": "The full ranking holds about 110,000 compounds; the median of “z-score” is about -0.1, and the highest 2% start at about 2. The list shows a part of the results.",
  "data": [
    {"molecular_target": "Metabotropic glutamate receptor 8 (Rattus norvegicus) (UniProt P70579)", "sequence (P70579 whole entry, looked up)": "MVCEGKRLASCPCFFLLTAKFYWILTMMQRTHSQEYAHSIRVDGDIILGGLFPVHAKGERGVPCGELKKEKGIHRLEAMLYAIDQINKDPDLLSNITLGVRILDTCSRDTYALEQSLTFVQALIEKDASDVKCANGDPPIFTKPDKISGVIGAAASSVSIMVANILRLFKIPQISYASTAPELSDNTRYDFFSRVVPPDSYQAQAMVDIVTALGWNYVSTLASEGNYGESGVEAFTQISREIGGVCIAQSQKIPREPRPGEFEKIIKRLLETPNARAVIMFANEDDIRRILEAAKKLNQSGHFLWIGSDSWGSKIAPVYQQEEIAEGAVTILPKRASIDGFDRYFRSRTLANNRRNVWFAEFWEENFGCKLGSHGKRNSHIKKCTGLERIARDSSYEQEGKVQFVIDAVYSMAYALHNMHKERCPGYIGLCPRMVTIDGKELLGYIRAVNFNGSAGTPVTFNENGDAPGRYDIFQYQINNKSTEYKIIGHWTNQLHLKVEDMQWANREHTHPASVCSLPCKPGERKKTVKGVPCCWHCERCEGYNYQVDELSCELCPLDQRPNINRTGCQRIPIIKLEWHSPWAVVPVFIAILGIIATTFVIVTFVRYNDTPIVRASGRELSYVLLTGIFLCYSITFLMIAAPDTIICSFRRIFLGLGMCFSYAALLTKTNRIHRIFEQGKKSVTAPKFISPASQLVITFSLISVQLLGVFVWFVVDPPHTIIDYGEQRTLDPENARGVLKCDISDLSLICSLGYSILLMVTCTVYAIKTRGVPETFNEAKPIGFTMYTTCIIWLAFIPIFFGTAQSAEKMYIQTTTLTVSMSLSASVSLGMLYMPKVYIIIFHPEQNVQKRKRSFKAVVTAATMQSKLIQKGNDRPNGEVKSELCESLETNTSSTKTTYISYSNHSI", "experiment": "rat mGluR8 modulators via GIRK flux, primary screen, cell-based, thallium flux, HTS (AID 488969)", "conditions": "HEK293 rat mGluR8, GIRK (G protein-gated inwardly rectifying potassium channel) thallium flux, FluoZin2; at 10 µM; stronger effect = higher value; submaximal glutamate (EC20) added with thallium", "values": [
      {"smiles": "COC(=O)CN1C(=O)Nc2ccc(Br)cc2C1c1ccccc1", "note": "(configuration not stated)", "z-score": -0.45},
      {"smiles": "O=C(Nc1ccccn1)c1cc2ccccc2o1", "z-score": -0.086},
      {"smiles": "CCOc1ccccc1NC(=O)CN(c1ccc(OC)cc1)S(=O)(=O)c1c(C)noc1C", "z-score": -0.596},
      {"smiles": "O=C(C1CCN(S(=O)(=O)c2ccccc2)CC1)N1CCOCC1", "z-score": -0.101},
      {"smiles": "NC(=O)Cn1c2[n+](c3ccccc31)CC(O)CS2", "note": "(configuration not stated)", "z-score": -0.0729},
      {"smiles": "C=CCNC(=O)c1c2c(nc3ccccc13)-c1ccccc1CC2", "z-score": -0.247},
      {"smiles": "COc1cc(-c2cc(C(=O)Nc3c(Cl)cc(Cl)cc3Cl)c3ccccc3n2)cc(OC)c1OC", "z-score": -0.278},
      {"smiles": "O=C(O)C1CCN1C1CCCCC1", "note": "(configuration not stated)", "z-score": 0.243},
      {"smiles": "COc1ccc(C2SCC(=O)N2CCCN(C)C)cc1", "note": "(configuration not stated)", "z-score": 0.107},
      {"smiles": "CCOC(=O)c1cc(-c2ccccc2)sc1NC(=O)C(C)OC(=O)c1ccncc1", "note": "(configuration not stated)", "z-score": -0.164},
      {"smiles": "O=c1cc(Nc2ccc3c(c2)OCCO3)[nH]c(=O)n1C1CCCCC1", "z-score": 0.565},
      {"smiles": "O=C1CCCCC(=O)N(c2ccccc2)c2ccccc21", "z-score": -0.0015},
      {"smiles": "COc1ccc(N/C=C\\C(=O)c2ccc3c(c2)OCO3)cc1", "z-score": -0.453},
      {"smiles": "O=C(CCCNS(=O)(=O)c1cccc2nsnc12)N1CCCCC1", "z-score": 0.989},
      {"smiles": "O=C(NCCCN1CCC(Cc2ccccc2)CC1)C1CCC(=O)N1C1CCCC1", "note": "(configuration not stated)", "z-score": -0.556},
      {"smiles": "Cc1ccccc1-c1nc(CN2CCC(C(=O)NCCCN3CCOCC3)CC2)c(C)o1", "z-score": -0.636},
      {"smiles": "CC1=CC(C)C2C(=O)N(CCC[N+](C)(C)C)C(=O)C2C1", "note": "(configuration not stated)", "z-score": -0.291},
      {"smiles": "CC(C)NC(=O)c1c2c(nc3ccccc13)CCCC2", "z-score": -0.133},
      {"smiles": "CCC(Nc1nc(-c2ccccc2)nc2ccccc12)C(=O)O", "note": "(configuration not stated)", "z-score": -1.78},
      {"smiles": "COc1cc2c(cc1NC(=O)C(C)NCc1ccccc1)oc1ccccc12", "note": "(configuration not stated)", "z-score": 0.0909},
      {"smiles": "Cc1[nH]c2ccc(F)cc2c(=O)c1SC(F)(F)C(F)F", "z-score": -1.3},
      {"smiles": "CN(C)c1ccc(/C=C/C(=O)c2cccc(Br)c2)cc1", "z-score": -0.756},
      {"smiles": "COc1ccc(C(=O)Nc2ccc(Cl)cc2C(=O)NCc2ccco2)cc1OC", "z-score": -0.347},
      {"smiles": "Cc1ccccc1N(CC(=O)O)S(C)(=O)=O", "z-score": -0.0172},
      {"smiles": "O=C(O)CSCC(=O)Nc1ccc(C(=O)O)cc1", "z-score": 0.337},
      {"smiles": "CC1CCCN(C(C(=O)Nc2ccc3c(c2)OCO3)c2ccccc2)C1", "note": "(configuration not stated)", "z-score": -0.134},
      {"smiles": "CC(C)C(=O)N1CCN(c2ccc([N+](=O)[O-])cc2Cl)CC1", "z-score": -0.961},
      {"smiles": "CCNC(=O)CCC(=O)Nc1cc(Cl)ccc1C", "z-score": -0.403},
      {"smiles": "CCCCn1c(-c2ccncc2)nc2c1c(=O)[nH]c(=O)n2CC(C)C", "z-score": 0.124},
      {"smiles": "CC(C)NC(=O)NC(=O)CSc1nnc(COc2ccccc2Cl)o1", "z-score": -0.0638},
      {"smiles": "CCOC(=O)CC(=O)Nc1ccc(C)cc1", "z-score": -0.33},
      {"smiles": "O=C1N=c2ccccc2=C1c1c(O)n(-c2cccc(F)c2)[nH]c1=O", "z-score": -0.202}
    ]}
  ]
}
